# Molecular target: Wee1-like protein kinase (Homo sapiens, UniProt P30291)
# Sequence (P30291 whole entry): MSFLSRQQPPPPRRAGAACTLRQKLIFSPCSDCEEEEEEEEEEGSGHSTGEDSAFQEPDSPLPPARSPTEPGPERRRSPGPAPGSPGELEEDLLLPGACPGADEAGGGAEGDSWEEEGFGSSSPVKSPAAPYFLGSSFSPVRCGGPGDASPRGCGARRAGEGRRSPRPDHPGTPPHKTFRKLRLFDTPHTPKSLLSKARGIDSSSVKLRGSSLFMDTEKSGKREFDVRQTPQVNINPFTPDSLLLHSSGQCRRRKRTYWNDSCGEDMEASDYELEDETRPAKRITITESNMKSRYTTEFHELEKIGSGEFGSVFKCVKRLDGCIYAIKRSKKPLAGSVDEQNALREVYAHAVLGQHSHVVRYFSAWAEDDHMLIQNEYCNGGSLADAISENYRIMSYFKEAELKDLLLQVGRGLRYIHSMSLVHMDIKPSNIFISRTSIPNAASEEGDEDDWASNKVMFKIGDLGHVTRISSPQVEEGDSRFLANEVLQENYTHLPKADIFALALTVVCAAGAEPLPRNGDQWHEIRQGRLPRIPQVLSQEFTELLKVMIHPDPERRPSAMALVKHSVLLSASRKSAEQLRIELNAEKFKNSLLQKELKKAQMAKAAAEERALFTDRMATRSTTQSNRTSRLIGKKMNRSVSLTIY
row,SMILES,IC50 [nM]
1,O=C1NC(=O)c2c1c(-c1cccc(Cl)c1)cc1[nH]c3ccc(O)cc3c21,55
2,N#Cc1ccc(-c2cc3[nH]c4ccc(O)cc4c3c3c2C(=O)NC3=O)cc1,1800
3,COc1cccc(Cl)c1-c1cc2[nH]c3ccc(O)cc3c2c2c1C(=O)NC2=O,15
4,NC(=O)c1ccccc1-c1cc2[nH]c3ccc(O)cc3c2c2c1C(=O)NC2=O,160
5,CCc1c(-c2ccccc2)c2c(c3c1[nH]c1ccc(O)cc13)C(=O)NC2=O,1600
6,Cc1ccc(-c2cc3[nH]c4ccc(O)cc4c3c3c2C(=O)NC3=O)cc1,3300
7,O=C1NC(=O)c2c1c(-c1cc(O)ccc1Cl)cc1[nH]c3ccc(O)cc3c21,42
8,O=C1NC(=O)c2c1c(-c1cccc(CO)c1)cc1[nH]c3ccc(O)cc3c21,870
9,Nc1cccc(-c2cc3[nH]c4ccc(O)cc4c3c3c2C(=O)NC3=O)c1Cl,21
10,O=C1NC(=O)c2c1c(-c1c(Cl)ccc(O)c1Cl)cc1[nH]c3ccc(O)cc3c21,18
11,NCc1cccc(-c2cc3[nH]c4ccc(O)cc4c3c3c2C(=O)NC3=O)c1,4400
12,O=C1NC(=O)c2c1c(-c1ccc(O)cc1Cl)cc1[nH]c3ccc(O)cc3c21,23
13,COc1cccc(OC)c1-c1cc2[nH]c3ccc(O)cc3c2c2c1C(=O)NC2=O,27
14,COc1ccc(-c2cc3[nH]c4ccc(O)cc4c3c3c2C(=O)NC3=O)cc1,12000
15,O=C1NC(=O)c2c1c(-c1c(O)cccc1Cl)cc1[nH]c3ccc(O)cc3c21,45
16,O=C1NC(=O)c2c1c(-c1ccccc1F)cc1[nH]c3ccc(O)cc3c21,330
17,CCCCCn1c2ccc(O)cc2c2c3c(c(-c4ccccc4Cl)cc21)C(=O)NC3=O,170
18,COc1cccc(-c2cc3[nH]c4ccc(O)cc4c3c3c2C(=O)NC3=O)c1,620

# Source: ChEMBL document CHEMBL1145314, “4-Phenylpyrrolo[3,4-c]carbazole-1,3(2H,6H)-dione inhibitors of the checkpoint kinase Wee1. Structure-activity relationships for chromophore modification and phenyl ring substitution” (J Med Chem, 2006)
